Measurements from patent publication US20260224736A1, “HSC-SPECIFIC ANTIBODY CONJUGATED LIPID NANOPARTICLES AND USES THEREOF” (GENZYME CORPORATION, priority 2023, published 2026).

Test system: primary human HSCs
Experiment: Screen of LNP-Fab and LNP-antibody conjugates for transfection of HSCs (GFP and DiI fluorescence)
Format: cell-based
Conditions: Fab or antibody conjugated to KC3 LNPs with GFP mRNA; 24 and 72 hours; constant RNA concentration 1 pig/mL
Description: HSC media was made using SFEM II media from StemCell™ Technologies as the base media. The SFEM II media was supplemented with the CD34+ expansion supplement to make the final HSC media formulation. Cryovials of 10 million primary human HSCs (isolated from a leukopak of G-CSF and Plerixaflor mobilized patients) were thawed using HSC media. After thawing, 1 mL of media was added dropwise to the vial and the entire volume was transferred to a 15 mL conical tube. 8 mL of additional media was added to the cell suspension and the total number of cells was counted using an NC-202™ automated cell counter. The cells were spun down and resuspended at a concentration of 1 million cells per 1 mL of media. […] On day 3 of culture, the cells were again counted on the NC-202™. […]
Using the methods described in Examples 4 and 5, KC3 LNPs encapsulating GFP mRNA were conjugated with 23 Fabs and commercially-obtained full-length antibody combinations over 3 Fab/antibody densities that target specific cell-surface markers of HSCs, including CD34, CD105 and CD117 (Table 7). […] The GFP mRNA was used to measure transfection, as the mRNA must enter the cell and escape the endosome to be transcribed into protein, allowing for fluorescence. The DiIC(18)5-DS was used as a measure of LNP targeting because the cells will have DiI fluorescence so long as the LNPs are capable of binding to the HSCs. […]

B1: Ab1 (antibody)
heavy: [letters of about 100 residues left out]GPPTYHTNYYYMDVWGKGTTVTVSSASTKGPSVFPLAPSSKSTSGGTAALGCLVKDYFPEPVTVSWNSGALTSGVHTCPAVLQSSGLYSLSSVVTVPSSSLGTQTYICNVNHKPSNTKVDKKVEPKSSDKTHTCGGHHHHHH
light: DIQMTQSPSSVSASVGDRVTITCRASQGISSWLAWYQQKPGKAPKLLIYAASSLQSGVPSRFSGSGSGTDFTLTISSLQPEDFATYYCQQTNSFPYTFGGGTKVEIKRTVAAPSVFIFPPSDEQLKSGTASVVCLLNNFYPREAKVQWKVDNALQSGNSQESVTEQDSKDSTYSLCSTLTLSKADYEKHKVYACEVTHQGLSSPVTKSFNRGES
Question: B1 was tested. Which “transfection of primary HSCs with mRNA (GFP and DiI fluorescence)” value did it give?
Answer: The value was “highest transfection efficiency”.
